The list shows a part of the results. These are further read-outs of the screen, such as a control signal, another cell line or another target. No call is given for them.

Holding throughout (experiment): Primary Screen for Target Class Profiling of Small Molecule Inhibitors of Methyltransferases
The target in assay [1] is Glycine N-methyltransferase (Homo sapiens) (UniProt Q14749). Conditions: purified enzyme, MTase-Glo SAH luminescence; measured here: GNMT inhibition; at 40 µM; stronger effect = lower value. In short, it runs like this:
(§1)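 Each enzyme was assayed with SAM and its substrate. SAH formation detected by MTase-Glo luminescence; single-point 40 uM screen[…].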

Assay [2] concerns the target Guanidinoacetate N-methyltransferase (Homo sapiens) (UniProt Q14353). Conditions: purified enzyme, MTase-Glo SAH luminescence; measured here: GAMT inhibition; at 40 µM; stronger effect = lower value. The method in brief:
as §1

For assay [3], the target named is Histamine N-methyltransferase (Homo sapiens) (UniProt P50135). As to conditions: purified enzyme, MTase-Glo SAH luminescence; measured here: HNMT inhibition; at 40 µM; stronger effect = lower value. The method in brief:
as §1

Assay [4] has as its target Nicotinamide N-methyltransferase (Homo sapiens) (UniProt P40261). Conditions: purified enzyme, MTase-Glo SAH luminescence; measured here: NNMT inhibition; at 40 µM; stronger effect = lower value. The method in brief:
as §1

Assay [5] concerns the target Phenylethanolamine N-methyltransferase (Homo sapiens) (UniProt P11086). As to conditions: purified enzyme, MTase-Glo SAH luminescence; measured here: PNMT inhibition; at 40 µM; stronger effect = lower value. In short, it runs like this: as §1
% is set by controls: 0 for no effect and ±100 for the full control effect.

For the molecule `Nc1nc(F)nc2c1ncn2[C@@H]1O[C@H](CO)[C@@H](O)[C@@H]1O`, the activity change, negative = inhibition is 5.96% in assay [1]; 9.72% in assay [2]; 11% in assay [3]; -5.26% in assay [4]; 6.14% in assay [5].

As to `Cc1c(OCC(F)(F)F)ccnc1CS(=O)c1nc2ccccc2[nH]1` (stereo unspecified), the activity change, negative = inhibition in assay [1] was -64.3%; in assay [2], 7%; in assay [3], -2.93%; in assay [4] it was -7.54%; in assay [5], 3.98%.

In the case of `CC1(C)CCCC2(C)C1CC=C1C(=O)OC(O)C12O` (stereo unspecified), the activity change, negative = inhibition in assay [1] is 2.1%; in assay [2], -8.1%; in assay [3], 3.54%; in assay [4], -19.5%; in assay [5], -1.06%.

On to `CC1(C(=O)NC2CCCCC2)Cc2ccccc2C(=O)N1Cc1ccc(F)cc1` (stereo unspecified), for which the activity change, negative = inhibition in assay [1] turned out to be 0.909%; in assay [2], 1.88%; in assay [3], 8.72%; in assay [4], 3.04%; in assay [5], 1.9%.

For `O=C(CC(c1ccccc1)c1ccccc1F)N1CCN(c2ccncc2)CC1` (stereo unspecified), the activity change, negative = inhibition in assay [1] is -8.1%; in assay [2], -7.53%; in assay [3], -35.3%; in assay [4], -22.2%; in assay [5], -9.67%.

As to `O=C1NC(=O)[C@@]2(CCOc3ccc(F)cc32)N1`, the activity change, negative = inhibition is 5.68% in assay [1]; 9.14% in assay [2]; 7.03% in assay [3]; -4.27% in assay [4]; 6.81% in assay [5].

On to `COC(=O)c1cc2n(n1)CC(C)(C(=O)NC1CCCCCC1)N(CCc1cccs1)C2=O` (stereo unspecified), for which the activity change, negative = inhibition in assay [1] is -2.79%; in assay [2] it was 0.782%; in assay [3], -14.4%; in assay [4], -0.447%; in assay [5], -3.12%.

`Cc1ccc(Cn2c(=O)c3ccccc3n3c(-c4ccc(F)cc4)nnc23)cc1`: the activity change, negative = inhibition is -7.92% in assay [1]; 1.18% in assay [2]; -5.45% in assay [3]; 1.33% in assay [4]; -6.09% in assay [5].

Take `CCC(C)NC(=O)c1ccc2c(=O)n(C)c3nn(Cc4ccccc4)c(=O)n3c2c1` (stereo unspecified): the activity change, negative = inhibition in assay [1] was -0.663%; in assay [2], 0.494%; in assay [3], -0.093%; in assay [4], 0.025%; in assay [5] it was 4.06%.

Take `CC1(C)C(=O)N(CC2CCOCC2)[C@H]2CN(Cc3cccs3)C[C@@H]2[S+]1(=O)[O-]`: the activity change, negative = inhibition in assay [1] is 0.694%; in assay [2] it was -11.2%; in assay [3] it was 0.698%; in assay [4], -18.9%; in assay [5], -3.31%.

With `CN1CCN(C(CN)C2CCCCC2)CC1` (stereo unspecified), the activity change, negative = inhibition in assay [1] is -1.14%; in assay [2], 2.18%; in assay [3], -7.99%; in assay [4] it was -5.92%; in assay [5], 10.3%.

Regarding `COC(=O)c1c(C)cc(OC(=O)c2c(C)cc(OC)cc2OC)cc1O[C@@H]1O[C@H](CO)[C@@H](O)[C@H](O)[C@H]1O`, the activity change, negative = inhibition in assay [1] is -4.93%; in assay [2] it was -4.89%; in assay [3], 6.8%; in assay [4], -18.1%; in assay [5], -12.9%.

On to `C=CCNC(=O)CCCc1nnc2n3nc(-c4ccccc4)nc3c3ccccc3n12`, for which the activity change, negative = inhibition was -8.48% in assay [1]; 4.38% in assay [2]; -6.25% in assay [3]; 7.94% in assay [4]; -7.14% in assay [5].

Take `O=C(C1CC1)N1CC[C@@H](Cc2n[nH]c(=O)n2-c2ccc(-c3ccc4occc4c3)cc2)C1`: the activity change, negative = inhibition was -3.28% in assay [1]; -1.66% in assay [2]; 6.88% in assay [3]; -14.2% in assay [4]; 1.57% in assay [5].

On to `CCCC1c2ccc(C)n2CCN1C(=O)Nc1cc(C)cc(C)c1` (stereo unspecified), for which the activity change, negative = inhibition in assay [1] was -4.45%; in assay [2], 3.44%; in assay [3], -5.59%; in assay [4], 4.16%; in assay [5] it was -2.07%.

With `O=[S+]([O-])(c1cccc(C(F)(F)F)c1)N1CCCC2(CC(c3ccccn3)=NO2)C1` (stereo unspecified), the activity change, negative = inhibition is -6.43% in assay [1]; -9.16% in assay [2]; -3.3% in assay [3]; -10.7% in assay [4]; -5.91% in assay [5].

Take `CC(=O)N1c2ccc(-c3ccc(C(=O)O)cc3)cc2[C@H](Nc2ccc(Cl)cc2)C[C@@H]1C`: the activity change, negative = inhibition in assay [2] is -1.87%; in assay [4], -19.1%; in assay [5], -1.33%.

Regarding `CCCCOC(=O)NS(=O)(=O)c1sc(CC(C)C)cc1-c1ccc(Cn2ccnc2)cc1`, the activity change, negative = inhibition in assay [1] was -4.62%; in assay [2] it was -3.66%; in assay [3], 7.09%; in assay [4], -39.5%; in assay [5] it was -2.64%.

As for `CNc1nc(C(=O)N2CCC(c3nccn3Cc3ccncc3)CC2)cs1`, the activity change, negative = inhibition in assay [1] is -3.25%; in assay [2], -10%; in assay [3] it was 0.034%; in assay [4] it was -5.35%; in assay [5], -0.109%.

Consider `CCOc1ccc(NC(=O)N2CCn3cccc3C2Cc2ccccc2)cc1` (stereo unspecified), for which the activity change, negative = inhibition was 6.19% in assay [1]; 3.26% in assay [2]; -2.26% in assay [3]; -3.17% in assay [4]; -14.5% in assay [5].

Turning to `CSc1nc(N)c2ncn([C@@H]3O[C@H](COP(=O)(O)OP(=O)(O)OP(=O)(O)O)[C@@H](O)[C@H]3O)c2n1`, the activity change, negative = inhibition was -32.2% in assay [1]; -11.2% in assay [2]; -34.9% in assay [3]; -30.4% in assay [4]; -34.7% in assay [5].

Take `CC(=O)Nc1c2n(c3ccccc13)CC(C)(C(=O)NC1CCCC1)N(C1CCCC1)C2=O` (stereo unspecified): the activity change, negative = inhibition in assay [1] was 5.18%; in assay [2] it was 1.68%; in assay [3], 7.45%; in assay [4], 10.2%; in assay [5] it was 5.45%.

On to `O=C(NC1CCCCC1)N1CCC(Cc2nc(-c3ccccc3)n[nH]2)C1` (stereo unspecified), for which the activity change, negative = inhibition in assay [1] was -8.41%; in assay [2], -10.1%; in assay [3], -3.77%; in assay [4], -13.2%; in assay [5], -13.6%.

`CCCSCCCN1C(=O)c2nc3ccccc3n2CC1(C)C(=O)NC1CCCCC1` (stereo unspecified): the activity change, negative = inhibition in assay [1] is -3.38%; in assay [2], 3.08%; in assay [3] it was -2.74%; in assay [4] it was -2.96%; in assay [5] it was -8.16%.

For the molecule `COc1ccc2cc(CNc3ccc(C)cc3)c(=O)n(CC(=O)Nc3cccc(C(F)(F)F)c3)c2c1`, the results for the activity change, negative = inhibition in assay [2], in assay [4] and in assay [5] were -24.5%, -51.5% and -17.7%, respectively.

As for `Cn1c(=O)c2ccc(C(=O)NC3CCCC3)cc2n2c(=O)n(Cc3ccccc3Cl)nc12`, the activity change, negative = inhibition is -2.05% in assay [1]; 1.67% in assay [2]; -1.18% in assay [3]; -4.2% in assay [4]; 0.518% in assay [5].

For the molecule `N#Cc1cccc(-c2cn3c(n2)N(C(=O)c2ccsc2)CCC3)c1`, the activity change, negative = inhibition was -4.6% in assay [1]; -12.1% in assay [2]; -40.5% in assay [3]; -17.9% in assay [4]; -12.1% in assay [5].

For the molecule `CCCn1cnc2cc(CNS(=O)(=O)c3ccc(F)cc3)ccc21`, the activity change, negative = inhibition was 4.26% in assay [1]; 0% in assay [2]; 1.22% in assay [3]; -6.07% in assay [4]; 0.8% in assay [5].

As for `O=[S+]1([O-])N(Cc2ccccc2)C[C@@H](O)[C@]12CCN(Cc1ccc(C(F)(F)F)nc1)C2`, the activity change, negative = inhibition in assay [1] was -7.27%; in assay [2] it was -5.01%; in assay [3] it was -2.62%; in assay [4], -13%; in assay [5], -11.5%.

Take `Cn1nccc1C(=O)N1CCC(N2CC(OCC3CC3)C23CCOCC3)CC1` (stereo unspecified): the activity change, negative = inhibition in assay [1] was -1.19%; in assay [2] it was -4.55%; in assay [3], -1.13%; in assay [4], -7.1%; in assay [5], -1.77%.

These data come from PubChem BioAssay AID1745853 (National Center for Advancing Translational Sciences (NCATS), 2022).
